PMC6727465, “Discovery of 2-phenoxyacetamides as inhibitors of the Wnt-depalmitoleating enzyme NOTUM from an X-ray fragment screen” (MedChemComm, 2019)

Molecular target: T1, NOTUM(81-451 Cys330Ser) (Homo sapiens, UniProt Q6P988, C330S)
T1 sequence (Q6P988 81-451 C330S): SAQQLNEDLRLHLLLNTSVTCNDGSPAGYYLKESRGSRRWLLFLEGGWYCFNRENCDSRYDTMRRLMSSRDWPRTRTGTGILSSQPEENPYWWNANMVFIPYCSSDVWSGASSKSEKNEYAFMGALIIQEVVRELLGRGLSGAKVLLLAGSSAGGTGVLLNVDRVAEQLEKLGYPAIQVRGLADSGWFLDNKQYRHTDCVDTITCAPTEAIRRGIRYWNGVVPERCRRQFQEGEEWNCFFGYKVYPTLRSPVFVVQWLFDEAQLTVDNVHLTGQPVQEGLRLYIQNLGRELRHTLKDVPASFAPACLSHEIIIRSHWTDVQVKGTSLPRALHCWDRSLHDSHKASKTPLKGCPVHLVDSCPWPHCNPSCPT
Test: not given
Conditions: NMe linker replacing O linker, cf. 34

decrease in activity [fold] | Compound
25 | Cc1ccccc1N(C)CC(=O)Nc1ccc2cnn(C)c2c1 [Compound 53]

Same assay, conditions: lipophilic ligand efficiency, NOTUM activity against clog P

LLE | Compound
3.5 | Cc1ccccc1OCC(=O)Nc1ccc2cn(C(C)C)nc2c1 [Compound 38]

Molecular target: T1, NOTUM(81-451 Cys330Ser)
Test: biochemical
Conditions: not given

IC50 [µM] | Compound
120 | N#Cc1ccccc1OCC(=O)Nc1cccnc1 [Compound 11]
20 | Cc1cc(F)ccc1OCC(=O)Nc1cccnc1 [Compound 17]
100 | Cc1ccccc1OCC(=O)NCc1cccnc1 [Compound 25]
0.97 | Cc1ccccc1OCC(=O)Nc1ccc2ccncc2c1 [Compound 46]

More lines, now with the values behind:

Compound | IC50 [µM]
Cc1ccccc1NCC(=O)Nc1cccnc1 [Compound 4] | 60
Cc1ccccc1SCC(=O)Nc1cccnc1 [Compound 5] | 110
Cc1ccccc1N(C)CC(=O)Nc1cccnc1 [Compound 7] | 23
Cc1ccccc1OCC(=O)Nc1ccc2cn(C(C)C)nc2c1 [Compound 38] | 0.032
Cc1ccccc1N(C)CC(=O)Nc1ccc2cnn(C)c2c1 [Compound 53] | 5.7
Cc1ccccc1OCC(=O)N1CCc2ccccc2C1 [Compound 54] | 7.9
